ChEMBL document CHEMBL4888484, “Replenishing the malaria drug discovery pipeline: Screening and hit evaluation of the MMV Hit Generation Library 1 (HGL1) against asexual blood stage Plasmodium falciparum ,using a nano luciferase reporter read-out” (2022)
About 540 (0.36%) of roughly 150,000 compounds showed an effect of 50% or more. This is one part of the list.

The molecules below were run on Plasmodium falciparum (assay: Primary screen in NF54 nanoGlo assay, in single point, at 2uM, 72h; a lower Z score goes with more inhibition). Conditions: timepoint 72 hour.
Assay type: functional, Erythrocyte

SMILES | % Inhibition [%] | Z score
CCc1nsc(N[C@@H](C)C2(S(C)(=O)=O)CC2)n1 | 4 | -0.69
O=C(c1sc2ccccc2c1Cl)N1CCCN(C(=O)c2sc3ccccc3c2Cl)CC1 | 1 | -0.18
Cc1csc([C@@H](C)CNC(=O)NCc2nc(C)no2)n1 | 1 | -0.19
CC(CNC1CCCC(C#N)C1)N1CCCC1 (stereo not drawn) | -4 | 0.45
CN(C(=O)CCOc1cc(F)ccc1F)[C@H]1CCCc2c1cnn2C | -9 | 0.84
CC(C)n1cc([C@H]2OCC[C@@H]2NC(=O)Nc2cnn(-c3ncccn3)c2)cn1 | -2 | 0.31
CC(C)n1ccnc1CNC(=O)C[C@H]1COCCN1C(=O)c1ccc(C#N)nc1 | -8 | 1.64
CC(C)C(C)(C)S(=O)(=O)Cc1cc(C(F)(F)F)nn1C | -5 | 0.81
COc1ccc(Br)cc1-c1nc(C(=O)NCCN2CCOCC2)cs1 | -12 | 2.13
Cc1nn(-c2ccccc2)c2sc(C(=O)n3ncc(-c4ccc5c(c4)OCO5)c3N)cc12 | -15 | 1.65
Cc1nn(-c2ccc(Br)cc2)cc1-c1noc(C(=O)NCc2ccccn2)n1 | -12 | 1.53
CN1CCCN(C(=O)C[C@@H](c2ccccc2)c2ccc(Cl)cc2)CC1 | 3 | -0.38
COc1ccc(CCNC(=O)C2C3C(=O)N(c4cc(C)on4)C[C@]34C=C[C@H]2O4)cc1 (stereo partly drawn) | -6 | 1.12
CCc1ccccc1S(=O)(=O)NC[C@H](C(=O)O)C(C)C | 2 | -0.45
Cn1c(=O)c2c(n(C)c1=O)[n+](C)cn2CC(=O)c1ccccc1 | -2 | 0.35
CCCn1nccc1S(=O)(=O)N1CCn2nc([C@@H](O)C3CC3)cc2C1 | -4 | 0.88
CCC1CN(C(=O)Nc2ccc(C(N)=O)c(Cl)c2)C(CC)CN1CC(C)(C)O (stereo not drawn) | -15 | 1.85
Cc1cc2c(N3CCC(N[C@@H](C)c4ccncn4)CC3)ncnc2s1 | -6 | 1.18
CN(CCNC(=O)c1nnc(C(=O)Nc2ccccc2)s1)C1CCCCC1 | -17 | 1.6
CC(C)c1ccc(C(=O)N2CCC[C@@](O)(C(F)(F)F)C2)nc1 | -4 | 0.55
COc1ccc([C@H]2CC(O)=Nc3c(C(=O)O)cn(-c4cccc(Cl)c4)c32)cc1O | -28 | 3.31

SMILES | % Inhibition [%] | Z score
CN(CC(=O)N1CC(OCc2ccccc2F)C1)Cc1ccccn1 | -7 | 1.01
CCn1ccnc1CN1CC(F)(F)C(F)(F)C1 | -3 | 0.59
CN(C)c1ncc(CN2CCS(=O)(=O)C(C)(C)C2)cn1 | -11 | 1.87
COCCN1CCC[C@H](C(=O)N2CCCCCC2)C1 | -1 | 0.11
COCCCNC(=O)/C(=C/c1cn(-c2ccccc2)nc1-c1ccc(Cl)cc1)NC(=O)c1ccc(Cl)cc1Cl | 1 | -0.12
Cc1ccc(C2=Nc3ccc(S(=O)(=O)N4CCOCC4)cc3S(=O)(=O)N2)cc1 | -6 | 0.98
C=C(C)CC(C)C(=O)N1CC2(C)CN(C)CC2(C)C1 (stereo not drawn) | 10 | -1.32
O=C(NCc1ccc(F)c(Cl)c1)N1CCn2c1nc1ccccc12 | 7 | -1.02
O=C1[C@@H]2CCCCN2C(=O)N1Cc1ccon1 | -3 | 0.48
CC(=O)N[C@@H](C)CC(=O)NCCC1(O)CCCC1 | -3 | 0.53
N#Cc1ccc(OS(=O)(=O)c2cccs2)cc1 | -10 | 1.66
O=C(O)[C@@H]1CN(C(=O)C2CC=CCC2)C[C@@H]1c1ccccc1 (stereo partly drawn) | -6 | 1.1
Cc1ccc(CN2CCN(Cc3ccc(=O)n(C)c3)CC2)cc1 | -6 | 0.8
COc1ccccc1CC(=O)N1CCc2[nH]nc(C(=O)N3CCN(c4ccccc4C)CC3)c2C1 | -5 | 0.68
COc1ccc(CN2CCC(N(c3ccccc3)S(=O)(=O)c3ccc(C)cc3)CC2)cc1 | -9 | 1.02
Cc1ccc(-c2n[nH]cc2CN2C[C@@H](CO)[C@H](c3ccncc3)C2)cc1 | 0 | -0.05
COc1ccc(C(=O)NCN2CCN(c3ccc(F)cc3)CC2)cc1OC | 36 | -4.61
CC(C)c1cc(C(=O)N2CC[C@@]3(CCCN(CC4CCC4)C3=O)C2)on1 | 5 | -0.98
CC(C)NC(=O)Nc1ccc(N(C)C)c(CN(C(=O)CC(C)(C)C)C(C)C)c1 | -10 | 0.97
Cc1nc(C)c(CNC[C@H]2COc3ccccc32)s1 | -2 | 0.28
C[C@@H](CN1CCCC1=O)NC(=O)c1cc(F)c(O)c(Cl)c1 | -17 | 2.8

SMILES | % Inhibition [%] | Z score
O=C(Nc1ccc(N2CCCCC2)cc1)c1cccc2ccccc12 | -32 | 3.79
O=C(NCCc1cccc(-c2ccccc2)c1)[C@@H]1CCCCN1 | 0 | 0.07
Cc1cnn(C[C@H](C)NCC(=O)NCc2ccc3c(c2)OCO3)c1 | 3 | -0.48
CC1CC(N2CCc3cncnc3C2)C(=O)O1 (stereo not drawn) | -14 | 2.01
CC(C)C[C@@H]1NC(=O)N(c2ccc3oc(-c4ccncc4)nc3c2)C1=O | -19 | 3.69
COc1ncnc(OC)c1C(=O)N(C)CCc1ccc(Cl)cc1 | -12 | 2.17
CC(C)CO[C@H]1CCN(C(=O)Nc2ccncc2F)C1 | -4 | 0.56
Cc1csc(C2(NC[C@H]3CN(C)C(=O)O3)CCOCC2)n1 | -4 | 0.63
CN(Cc1ncnn1C)c1nc2ccccc2nc1N1CCOCC1 | -1 | 0.21
Cn1cc2c(n1)CCCC2NC(CCO)c1ccco1 (stereo not drawn) | 2 | -0.2
CCCC(C)c1cc(NC(=O)C2CCCO2)[nH]n1 (stereo not drawn) | 2 | -0.14
CCC1(CC)CN(C(=O)c2cn[nH]c(=O)c2)c2ccccc21 | 0 | -0.01
COc1ccc([C@H]2CC(=O)Nc3nc(N4CCCCC4)sc32)cc1OC(C)C | -23 | 2.95
CCOC(=O)C(=NO)Nc1ccccc1 | 2 | -0.34
O=C(NC1CC(O)C(CO)C1)c1cc(C2CC2)on1 (stereo not drawn) | -7 | 1.06
CCC(NC(=O)NCC(O)c1ccsc1)c1ccccc1OC (stereo not drawn) | 3 | -0.35
CC(C)Cc1nnc(C[C@H]2CCN(C(=O)C3CCOCC3)C2)o1 | -2 | 0.32
O=C(CCCn1cncn1)N1CCC(C(=O)N2CCCC2)CC1 | -2 | 0.25
C[C@@H]1CN(Cc2cc(O)c3cccc(Cl)c3n2)C[C@H](C)O1 | 16 | -2.03
COc1ccc(CCNC(=O)c2c(O)c3cccc4c3n(c2=O)CC4)cc1OC | -13 | 1.13
Cc1cc(C)c2c(C(=O)NCc3nc(-c4cnccn4)n[nH]3)cc(C)nc2c1 | -3 | 0.39

SMILES | % Inhibition [%] | Z score
CCc1ccc(CC)c(NC(=O)NC(C)(C)CCS(C)(=O)=O)c1 | -4 | 0.39
CC(=O)Nc1ccc(C2OC(=O)N(Cc3ccc(C)cc3)C2C(=O)NCc2ccccn2)cc1 (stereo not drawn) | 1 | -0.09
N#Cc1ccc(NCc2cc3n(n2)CCN(C2CCCCC2)C3)nc1 | 0 | 0.06
C1CCC(NC2=NCCCNC23CCCCC3)CC1 | -9 | 1.55
c1ccc(-c2cc(-c3ccccn3)nc3ccc4ccccc4c23)cc1 | -21 | 2.78
CS(=O)(=O)N1C[C@H]2CC[C@@H](C1)N(C(=O)c1ncc(F)cc1F)C2 | -3 | 0.51
COC(=O)CCN(C(=O)[C@H]1CCCC12OCCO2)C(C)C | 1 | -0.11
CCN(CC(=O)Nc1c(F)cccc1F)CC(=O)N1c2ccccc2NC(=O)C[C@@H]1C | -8 | 1.08
CCOc1ccc(NC2=C(C(N)=O)S(=O)(=O)c3ccccc32)cc1 | -5 | 0.51
N#Cc1ccc(C(=O)N2CCN3CCS(=O)(=O)N(C4CC4)C(=O)[C@@H]3C2)cc1 | -6 | 0.79
Cn1nc(CN(C(=O)c2cccnc2)C2CCCC2)c2c1CCC2 | -6 | 1.17
CCCOCC(=O)Nc1cc(C(=O)O)c(Br)cc1C | -10 | 1.19
O=C1[C@@H]2CCCN2C(=O)N1Cc1cc(-c2ccc(Cl)cc2)no1 | 30 | -3.42
CC1CCN(C(=O)c2n[nH]c3c2CN(C(=O)Cc2ccccc2Cl)CC3)CC1 | 2 | -0.24
Cc1nc(C)c(-c2nc(-c3ccc4oc(-c5ccccc5)nc4c3)no2)s1 | -3 | 0.3
Cc1cc(CN(C)C(=O)c2ocnc2C)no1 | -7 | 1.13
C[C@@H](c1nnc(-c2ccccc2F)s1)N(C)Cc1ccc(F)cc1 | 0 | -0.04
COc1cccc(C(=O)N2CCN(C(=O)C[C@H]3CCS(=O)(=O)C3)CC2)c1 | -12 | 2.09
CCN1CC(C)N(S(=O)(=O)c2cc(C(=O)NC)n(C)c2)C(C)C1 (stereo not drawn) | -12 | 1.82
COc1ccc(-c2ccn(CC(=O)Nc3cc(C)nn3C)n2)cc1F | -14 | 1.72
CC(C)[C@H](NC(=O)Nc1ccnn1C(C)(C)C)c1cnn(C)c1 | -12 | 1.82
